This is one part of the list.
Each sequence was assayed on PF3D7_0420300 AP2 domain 1 (GST-tagged) (assay: gcPBM binding intensity (ln(normalized median fluorescence intensity)); higher = stronger DNA binding).
In short: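 GST-fused DNA-binding domains of P. falciparum, expressed in E. coli, were applied at about 25 μg on average for 1 h to an Agilent 4 × 180k array of primer-extended double-stranded 36-bp intergenic genomic probes and negative controls. Binding intensity is the highest Masliner-normalised natural-log median intensity across replicate spots of either probe orientation, measured with Alexa488 anti-GST antibody and a 488 nm scan.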
In the case of “AAAATATAAATCTAAGCATGCAAAAAAAATTTATAA [TGCATGCA_site1008]”, the “gcPBM binding intensity (ln)” value is reported as 9.13. For “TATTGTTTTAAAGAGACATGCAATATATATTATTCC [TGCATGCA_site752]”, the “gcPBM binding intensity (ln)” value was 9.06. With TAAACGTTAGTATGTGTGCACATTAGTAATTTAAAA the “gcPBM binding intensity (ln)” value was 9.52. With “TTTTTATTATTCTTAAGGATATAACAAAAAAGAAAA [XGTACX_negctrl_site584]” the “gcPBM binding intensity (ln)” value was 8.81. With “ATTAATATTATTAGAAGTACTAATAGTAGTATAACT [XGTACX_site1325]” the “gcPBM binding intensity (ln)” value was 9.14. For “TTCTAAAAAAATAAAATTATCAAGGTTTTTAAACGT [CACACA_negctrl_site308]”, the “gcPBM binding intensity (ln)” value was 8.93. In the case of “TCAAAGCACACATACACACACATATAGATTTATATA [CACACA_site6272]”, the “gcPBM binding intensity (ln)” value is reported as 9.89. With “TAAATAAATATATATTCACACACAAACATATATATA [CACACA_site9332]” the “gcPBM binding intensity (ln)” value was 9.68. “TCTTCATAAAAATAAAGTACATTATATATATAAATA [XGTACX_site3775]” was tested, and the “gcPBM binding intensity (ln)” value was 8.96. For “TTTATTTATAGACACACACACAAAAAAAAAAAAAAA [CACACA_site7280]”, the “gcPBM binding intensity (ln)” value was 9.57. For “TTGTATATATATGGAAAAATATATATATATATATAT [GTGCAC_negctrl_site591]”, the “gcPBM binding intensity (ln)” value was 9.04. With “CATTTATATTATAAATGTACAAAGTTCGTTTGTTCC [XGTACX_site1305]” the “gcPBM binding intensity (ln)” value was 9.17. In the case of “TTTTTTTTTTTTTTTATAAAAGATAATTTTTTTTTA [CACACA_negctrl_site133]”, the “gcPBM binding intensity (ln)” value is reported as 8.45. For “TGTCTTTAAATTTCTCAACACACAGTTATAAAAAAT [CACACA_site8930]”, the “gcPBM binding intensity (ln)” value was 9.18. With “GGGTCAAGTAAGCTGTTCCTCTTTTTCTTTCTCACT [GTGCAC_negctrl_site473]” the “gcPBM binding intensity (ln)” value was 9.7. With “TATAAATTTAAAATGACACACACTAATATTATTTAA [CACACA_site8334]” the “gcPBM binding intensity (ln)” value was 9.6. “ATACGATTGAAACATTGTACATGAATATAAAAAAAT [XGTACX_site5704]” was tested, and the “gcPBM binding intensity (ln)” value was 9.31. For “TTATTACATGTTACTTAACACACATCTGGTGAAATA [CACACA_site7939]”, the “gcPBM binding intensity (ln)” value was 9.4. “GGAAAGACAGTTCACAGTACCCAGTAAACTCTACGG [XGTACX_site2557]” was tested, and the “gcPBM binding intensity (ln)” value was 9.16. For “AAAATATAGTAATATATATATGTATATTATTTGTGG [CACACA_negctrl_site1590]”, the “gcPBM binding intensity (ln)” value was 9.17. For “ATATATAATATTTTTATTTTTATTTTTTTTTTATGA [TGCATGCA_negctrl_site577]”, the “gcPBM binding intensity (ln)” value was 9.01. For “ATTAAGTTCAAATGTAGTACGTGTAAAAAAAAAAAA [XGTACX_site1578]”, the “gcPBM binding intensity (ln)” value was 9.18. “TACCATGTTCAAATTACACACATATAATGTAATATA [CACACA_site5150]” was tested, and the “gcPBM binding intensity (ln)” value was 9.39. For “TTTATATATGTAAATGCACACATATGTGTATATACT [CACACA_site8493]”, the “gcPBM binding intensity (ln)” value was 9.49. In the case of “AAAATAAATAAATAAATAAATATATATATATATATA [XGTACX_negctrl_site345]”, the “gcPBM binding intensity (ln)” value is reported as 9.03. “TATAGGTATATATTATGTACTTATAATTATATAGAT [XGTACX_site1912]” was tested, and the “gcPBM binding intensity (ln)” value was 9.07. With “GAAATATTTAGACACACACACAAACATATAAATATA [CACACA_site6980]” the “gcPBM binding intensity (ln)” value was 9.98. “ATGTTGTGTATATATACACACATACATATATATATA [CACACA_site8461]” was tested, and the “gcPBM binding intensity (ln)” value was 9.52. With “GATTATATTATATATTAAATATAAATATGTATTATA [TGCATGCA_negctrl_site66]” the “gcPBM binding intensity (ln)” value was 9.05. “AATGGAAATGTAAAATGTACAGGACGCACACACATA [XGTACX_site7788]” was tested, and the “gcPBM binding intensity (ln)” value was 9.66. With “AAAAAAAATTAAAATAAATTAAAAAGTAATTATATA [GTGCAC_negctrl_site615]” the “gcPBM binding intensity (ln)” value was 9.01. In the case of “AATGAGAAGGACTGCACACTAAAATGGAAGGAGAAA [CACACA_site1575]”, the “gcPBM binding intensity (ln)” value is reported as 9.55. In the case of “GAAAAAATTTTATGGTGTACTTTATTTATTTATATA [XGTACX_site6323]”, the “gcPBM binding intensity (ln)” value is reported as 9.4. TTTTTTTTTTTCTTAGTGCGCGTGAAAAATATAAAA was tested, and the “gcPBM binding intensity (ln)” value was 8.75. For “AATTAGATTATGCACACACACTTAAAAATAATAAAT [CACACA_site7015]”, the “gcPBM binding intensity (ln)” value was 9.81. For “TTACTCAAACAAACAAAAAAAAAAAAAAAAAAAAAA [TGCATGCA_negctrl_site457]”, the “gcPBM binding intensity (ln)” value was 8.48. For “ATATATAGAATGTGTACACACATATGTATTTATATA [CACACA_site810]”, the “gcPBM binding intensity (ln)” value was 9.51. With “ATTTTTTATGGACAAAAGACCTCTGATGTAAATATA [CACACA_negctrl_site1081]” the “gcPBM binding intensity (ln)” value was 8.97. In the case of “TACTATAACGCACATACACACAAAAAAAAAAAAAAA [CACACA_site8073]”, the “gcPBM binding intensity (ln)” value is reported as 9.45. In the case of “TATATATATATTTTTGCATGTAATTTTTATGAGGAC [TGCATGCA_site884]”, the “gcPBM binding intensity (ln)” value is reported as 9.13. With “ATATGGTGATATAGGTGTACATTTTGATGCTTATTT [XGTACX_site4283]” the “gcPBM binding intensity (ln)” value was 9.5. “TTATACATGAAATATTGTACACATATATATATATAT [XGTACX_site4378]” was tested, and the “gcPBM binding intensity (ln)” value was 9.22. “TATGAATATTTGTATACATGCATATAGAAATCATAT [TGCATGCA_site533]” was tested, and the “gcPBM binding intensity (ln)” value was 9.13. In the case of “ATATATTATATATATATATATATATATTATTATTGT [TGCATGCA_negctrl_site286]”, the “gcPBM binding intensity (ln)” value is reported as 9.18. “TGCATTATTTACAAGGTGCGTTACAAATGTGTAACA [GTGCAC_site9442]” was tested, and the “gcPBM binding intensity (ln)” value was 9.11. For “GCTTTAATCTGAAAGTGTACAGATAATATATTTATA [XGTACX_site2462]”, the “gcPBM binding intensity (ln)” value was 9.02. With “GATAAATGTATATATGCATGCACATATATTTATACA [TGCATGCA_site748]” the “gcPBM binding intensity (ln)” value was 9.33. “TATTTGTAATATTATACACACATTATATATTACAAA [CACACA_site5804]” was tested, and the “gcPBM binding intensity (ln)” value was 9.31. For “ATTTAAATAACGTATGTATATACATATATATATATA [TGCATGCA_negctrl_site207]”, the “gcPBM binding intensity (ln)” value was 9.15. With “CGTAGCCACACTAACACACACAAATATACACAATCA [CACACA_site7379]” the “gcPBM binding intensity (ln)” value was 9.78. With “TATTTTGTATATAAATGTACAAGTATATATTTTTTC [XGTACX_site7855]” the “gcPBM binding intensity (ln)” value was 9.02. “CACGCGCCCGGACACACACACACACCCATATATATA [CACACA_site5251]” was tested, and the “gcPBM binding intensity (ln)” value was 10.2. For GAATAAATATTAAATGTGCACTTGAATAGATGTAAA, the “gcPBM binding intensity (ln)” value was 9.26. “TTTTTCATCATATGTTGTACAATGTGTAGATATATT [XGTACX_site3195]” was tested, and the “gcPBM binding intensity (ln)” value was 9.32. With “AGATACGATTATATGCGTTCAATATACCAAATAATT [TGCATGCA_negctrl_site501]” the “gcPBM binding intensity (ln)” value was 9.24. “CTTTGTGTTAAAAGTAGTACACCAAAAATATGACTT [XGTACX_site622]” was tested, and the “gcPBM binding intensity (ln)” value was 9.26.

From the supplement of paper PMC11417369
